The structures appear in SMILES notation. The list shows a part of the results. These are further read-outs of the screen, such as a control signal, another cell line or another target. No call is given for them.

The experiment in a line: compounds boosting herpes simplex virus growth – fold increase, host cell viability (AID 1956). Note: tested in PC3 cells. The following applies: HSV replication augmentation in cells; fold increase: measured here: primary screen fold increase 10 uM, at 10 µM, stronger effect = higher value; viability: measured here: host cell viability series, at 25 µM, stronger effect = lower value.
Compound `C=CCOC(=O)C1=C(C)NC(SCC(=O)Nc2nccs2)=C(C#N)C1c1ccc(Cl)cc1` (configuration not stated) registered a fold increase of 1.58.
The same measure, in the same setting: next, `Cc1c(C(=O)Nc2ccc(F)cc2)c2ccccn2c1CCc1ccncc1`: 1.45.
As to `Cc1nnc(-c2cccc(Br)c2)c2cn(-c3ccccc3)nc12`, the fold increase amounted to 1.94 and the viability is 87.8%.
The compound `C=CCN1C(=O)C2(c3ccccc31)C1CCCC=C1C(C#N)=C(N)C2(C#N)C#N` (configuration not stated) had a fold increase of 1.05.
Turning to `Cc1ccc(S(=O)(=O)c2c(N)n(Cc3ccco3)c3nc4ccccc4nc23)cc1`, the fold increase came out at 2.21 and the viability came out at 79.7%.
For `CN(C)C(=O)CSc1nnc(CCN)o1` the same measures were 1.42 and 91.2%.
On to `CCCN1C(=O)/C(=C/c2ccc(N3CCCC3)c(C)c2)NC1=S`, for which the fold increase is 2.54 and the viability was 87.1%.
On to `Cc1cc(O)c(/C=N/c2ccccn2)c(=O)o1`, for which the fold increase is 2.39 and the viability is 97.5%.
For `CC(C)(C)c1cc(-c2n[nH]c(=S)n2-c2ccccc2F)n[nH]1` the same measures were 1.35 and 95.4%.
As for `CCOc1cc(/C=C(\C#N)c2nc(-c3cccs3)c(NC(C)=O)s2)ccc1O`, the fold increase was found to be 8.14.
Consider `COc1ccccc1C(=O)Oc1ccc2c(c1)O/C(=C\c1ccncc1)C2=O`, for which the fold increase came out at 1.53 and the viability was found to be 89.4%.
For `O=C(Cc1ccc(Cl)cc1)N/N=C/c1cccs1` the same measures were 1.34 and 96.9%.
For the compound `Cc1ccc(S(=O)(=O)NC(C(=O)Oc2ccc3c(C(F)(F)F)cc(=O)oc3c2)c2ccccc2)cc1` (configuration not stated), the fold increase turned out to be 1.62 and the viability amounted to 98.5%.
`COc1cccc(-c2nc(NCc3ccco3)c3ccccc3n2)c1O` showed a fold increase of 1.03.
Turning to `CCOc1ccc(C(=O)N/N=C(\c2ccccc2)c2ccccn2)cc1`, the fold increase is 1.07.
As to `Oc1ccccc1N=Cc1c(O)ccc2oc3c(c12)CCCC3`, the fold increase was 1.42 and the viability was determined as 93.7%.
For the compound `CS(=O)(=O)N(Cc1ccccc1)c1ccc(C(=O)Nc2cccnc2)cc1`, the fold increase was 1.37 and the viability came out at 98.6%.
For `OCCCn1c(-c2ccccc2)nc(=S)c2c1CCCC2` the same measures were 1.44 and 97.4%.
As for `O=C1/C(=C/c2cccs2)N=C(c2cccs2)N1Nc1ccccc1`, the fold increase was found to be 1.34.
The same measure, in the same setting: for `CC1c2ccsc2CCN1S(=O)(=O)c1cccs1` (configuration not stated) the value was 1.32; for `O=C(NC(=S)Nc1ccccc1)c1cc(-c2ccccc2)nc2ccccc12`, 1.28.
Turning to `CC(C)(C)c1ccc(Oc2ccc(N)cn2)cc1`, the fold increase amounted to 1.93 and the viability stood at 61.6%.
Consider `CN=c1scc(-c2ccccc2F)n1/N=C/c1ccc[nH]1`, for which the fold increase came to 1.35.
Regarding `O=C(/C=C/c1ccc2c(c1)OCO2)c1ccc(F)cc1`, the fold increase worked out at 1.57 and the viability amounted to 91.6%.
For `COc1ccc2c(c1)c1nc3ccccc3nc1n2CC(=O)OC(C)C` the same measures were 1.52 and 71.8%.
For `COc1cccc(-n2c(C)c3c(OC)cccc(=O)c3c2C)c1` the same measures were 1.36 and 97.4%.
For `Cc1ccc(C=Nc2cccnc2N)cc1` the same measures were 1.94 and 105%.
For `Cc1ccc(-c2cc(-c3ccc(F)cc3)c(C#N)c(N)n2)o1`, the fold increase was 1.41.
On to `O=C(O)C(Cc1ccc(O)cc1)N1C(=O)C2CCCCC2C1=O` (configuration not stated), for which the fold increase was 1.39 and the viability amounted to 94.9%.
`CCOC(=O)N1CCN(C(c2cccnc2)c2ccc3cccnc3c2O)CC1` (configuration not stated) came in with a fold increase of 1.01.
For the compound `CC(C)(C)c1ccc(Cn2c(=N)n(CC(O)c3ccco3)c3ccccc32)cc1` (configuration not stated), the fold increase amounted to 1.49 and the viability amounted to 2.51%.
For `CCCOC(=O)c1ccc(NC(=O)/C=C/c2cccs2)cc1` the same measures were 1.51 and 96.7%.
The like results for `CN(C)Cc1c(O)ccc2c1O/C(=C\C=C\c1ccccc1)C2=O` were, in that order, 2.78 and 52.9%.
The like results for `O=[N+]([O-])c1ccc(-c2ccc(/C=N/Nc3nc(N4CCCCC4)nc(N4CCCCC4)n3)o2)cc1` were, in that order, 1.66 and 54.9%.
As for `CCOC(=O)c1cnc(COc2ccc(OC)cc2)[nH]c1=O`, the fold increase was 1.36 and the viability was 93.9%.
The like results for `O=C(NC1CC1)C1CCN(C2CCN(C(=O)c3ccc4cccc(F)c4n3)CC2)CC1` were, in that order, 1.36 and 93.3%.
Consider `CC(=O)N(C(C)=O)N1C(=O)c2cccc3c(N4CCOCC4)ccc(c23)C1=O`, for which the fold increase was 1.93 and the viability came out at 103%.
Regarding `CC(C)NC(=O)/C(C#N)=C/c1ccc(N(C)C)o1`, the fold increase came to 1.59 and the viability came out at 92.5%.
For `COC(=O)C/C=N/N=C1/NC(=O)/C(=C/C(=O)O)S1` the same measures were 1.4 and 112%.
Regarding `CC(=O)Nc1sc(/C(C#N)=C/c2ccc(Cl)c(Cl)c2)nc1-c1ccc(C)cc1`, the fold increase is 6.5 and the viability is 96.8%.
The like results for `COc1cc(/C=C(\C#N)c2nc3ccccc3o2)ccc1O` were, in that order, 8.41 and 85.6%.
As to `CCOc1cccc(=O)c2c(C)n(CC3CCCO3)c(C)c12` (configuration not stated), the fold increase is 1.39 and the viability came to 97.8%.
With `COc1ccccc1NC(=O)c1c(NC(=O)CCC(=O)O)sc2c1CCCCC2`, the fold increase stood at 1.42 and the viability amounted to 99.9%.
The like results for `Cc1ccc(S(=O)(=O)C(C#N)c2nc3ccccc3nc2N2CCCC2)cc1` (configuration not stated) were, in that order, 1.54 and 92.8%.
The like results for `COc1cccc(-c2nc3n(n2)C(c2ccccc2Cl)C(C(N)=O)=C(C)N3)c1` (configuration not stated) were, in that order, 1.44 and 91%.
The like results for `Cc1cc(NC(=O)/C(C#N)=C/c2ccc(-c3ccc(SC(F)F)cc3)o2)n(-c2ccccc2)n1` were, in that order, 1.96 and 79.9%.
In the case of `CCOC(=O)/C(C#N)=C(C)/C=C1\Sc2ccccc2N1CC`, the fold increase amounted to 1.95 and the viability was 92.2%.
The like results for `CCOC1=C/C(=C/c2c(N)n3nc(-c4ccccc4)sc3nc2=O)C=CC1=O` were, in that order, 4.48 and 94.1%.
The like results for `CCOc1ccc(S(=O)(=O)Nc2nc3ccccc3nc2Nc2ccc(N3CCOCC3)cc2)cc1` were, in that order, 1.97 and 101%.
In the case of `O=[N+]([O-])c1ccc(N/N=C/c2cn(-c3ccccc3)nc2-c2ccccc2)cc1`, the fold increase amounted to 1.19.
`O=C(Nc1cccnc1Cl)c1ccc(=O)oc1`: the fold increase was found to be 1.39 and the viability was 97.2%.
Consider `Cc1cccn2c(=O)c(/C=C3\SC(=S)N(CC(C)C)C3=O)c(NCCCOC(C)C)nc12`, for which the fold increase stood at 2.21 and the viability is 97.8%.
For `Cc1onc(-c2ccccc2Cl)c1C(=O)NCCn1ccc2ccccc21` the same measures were 1.35 and 87.5%.
The compound `CCN(CC)c1ccc(/C=N/Nc2nc3ccccc3[nH]2)c(O)c1` gave a fold increase of 1.72.
Consider `CCCCn1c(NS(=O)(=O)c2ccccc2)c(S(=O)(=O)c2ccc(C)cc2)c2nc3ccccc3nc21`, for which the fold increase was determined as 1.6 and the viability is 96.7%.
For `N#CC1(C#N)CC(C=O)=C(N)C1(C#N)CC(=O)c1ccc(F)cc1` (configuration not stated) the same measures were 1.79 and 96.2%.
The compound `COc1cc(N=Nc2cccc(S(N)(=O)=O)c2)c2ccccc2c1N` displayed a fold increase of 1.78.
Turning to `CCOC(=O)C1=C(CSc2nc3c(cc2C#N)CN(C)CC3)OC(N)=C(C#N)C1c1ccncc1` (configuration not stated), the fold increase turned out to be 1.51 and the viability worked out at 99.7%.
The like results for `CCCCn1c(N)c(N(CCOC)C(=O)CN2c3ccccc3CC2C)c(=O)[nH]c1=O` (configuration not stated) were, in that order, 2.2 and 98.5%.
The like results for `CCCN1C(=O)C2(C(C(=O)c3ccc(C)o3)=C(O)C(=O)N2CCCOC)c2ccccc21` (configuration not stated) were, in that order, 1.36 and 101%.
For `COc1ccccc1N1CCN(S(=O)(=O)c2ccc(Cl)s2)CC1` the same measures were 1.37 and 101%.
Take `C/C(=N/Nc1nc(-c2ccccc2)c(CC(=O)O)s1)c1ccccc1`: the fold increase worked out at 1.48 and the viability stood at 91.3%.
For `c1ccc(-c2noc(CSc3nnc(Cc4cccs4)n3-c3ccccc3)n2)cc1` the same measures were 1.35 and 97%.
Compound `Cc1cccc(-n2c(O)c(C=Nc3ccc4c(c3)OCO4)c3ccccc3c2=O)n1` showed a fold increase of 1.35.
Still for that read-out and setting: for `CCN(CC)c1ccc(/C=N/Nc2cccc(C)c2)c(O)c1` the value was 1.34; for `O=C(Cn1cnc2cc([N+](=O)[O-])ccc2c1=O)Nc1ccc(N2CCOCC2)cc1`, 1.32.
Take `OC1CNCc2cc3c(cc21)OCCO3` (configuration not stated): the fold increase was found to be 1.49 and the viability came out at 94.9%.
Turning to `CCOC(=O)c1c(/N=C/c2ccc(C)cc2O)sc2c1CCC2`, the fold increase was found to be 1.67.
As to `Cc1nnc(NC(=O)c2sc3nc(-c4cccs4)cc(C(F)(F)F)c3c2N)s1`, the fold increase was found to be 3.51 and the viability came out at 86.1%.
The like results for `O=C(NCc1ccco1)c1ccc2c(c1)C(=O)c1ccccc1-2` were, in that order, 1.45 and 87.3%.
`N#Cc1c(NC(=O)CCN2C(=O)c3ccccc3C2=O)oc(-c2ccccc2)c1-c1ccccc1` returned a fold increase of 1.17.
Consider `Cc1cc2cc(CNC(=O)c3cccs3)ccc2n1C`, for which the fold increase was found to be 1.64 and the viability was found to be 92.9%.
The compound `N=C1c2ccccc2CN1NC(=O)c1cccc(S(=O)(=O)N2CCOCC2)c1` gave a fold increase of 1.33.
Regarding `O=C(Cc1ccccc1)Nn1c(O)c(/C=C2\C=Nc3ccccc32)sc1=S`, the fold increase is 4.8 and the viability was found to be 61%.
`COc1ccc(/C=C/C(=O)NC(=S)NNC(=O)c2ccco2)cc1` yielded a fold increase of 1.14.
Regarding `N=C1/C(=C\c2coc3ccccc3c2=O)C(=O)N=C2SC(c3ccncc3)=NN12`, the fold increase was 1.49 and the viability was found to be 95.3%.
As for `O=C(CSc1nncs1)NC(=O)NCc1ccccc1`, the fold increase is 1.32 and the viability came out at 98.3%.
The like results for `CN(C)CCCn1c(N)c(C#N)c2nc(C#N)c(C#N)nc21` were, in that order, 1.15 and 50.1%.
For the compound `COc1ccc(-c2cn[nH]c2C)cc1`, the fold increase was 1.33 and the viability is 105%.
The like results for `O=C(CCCSc1ccccc1)Nc1nc(-c2ccco2)c(-c2ccco2)s1` were, in that order, 1.34 and 95.3%.
In turn, `CC(=O)N1CCN(c2ccc(NCc3ccc4c(c3)OCO4)cc2)CC1` registered a fold increase of 1.33.
As for `CCN(c1ccc(N=Cc2c(O)n(Cc3ccc(OC)cc3)c(=O)c3ccccc23)cc1)C(C)C`, the fold increase was 7.53 and the viability is 97.3%.
In the case of `CC1CCCCC1NC(=O)CN1CCC(O)(c2ccc(F)cc2)CC1` (configuration not stated), the fold increase is 1.36 and the viability stood at 102%.
The like results for `COc1cc(NC(=O)Cc2cccs2)c(C(=O)O)cc1OC` were, in that order, 1.54 and 95.6%.
Compound `CC1=NN(c2nc(-c3ccccc3)cs2)C(=O)C1` yielded a fold increase of 1.83.
Take `O=c1ccc2[n+]([O-])c3ccc(O)cc3oc-2c1`: the fold increase amounted to 1.38 and the viability was found to be 75%.
Take `C/C(=N\NC(=S)Nc1cccc(C)c1)c1ccccc1`: the fold increase turned out to be 1.11.
Regarding `CCOCCc1nnc(NC(=O)c2cc(OC)c(OC)cc2[N+](=O)[O-])s1`, the fold increase is 1.34 and the viability was 99.3%.
For `COc1ccc(-n2c(O)c(/C=N/NS(=O)(=O)c3ccc(C)c([N+](=O)[O-])c3)c3ccccc3c2=O)cc1OC` the same measures were 2.6 and 96.6%.
For `N#CC1=C(N)Oc2c(sc3ccccc23)C1c1ccco1` (configuration not stated) the same measures were 1.59 and 82.4%.
The like results for `FC(F)(F)c1ccc2c(c1)N1CCCC1CN2` (configuration not stated) were, in that order, 1.34 and 86.9%.
In the case of `COc1ccc(C(C#N)N2N=C(c3ccccc3)CC2c2ccccc2)cc1OC` (configuration not stated), the fold increase was determined as 1.34 and the viability was determined as 87%.
For `CCN(C(=O)CSc1nc2ccccc2c(=O)n1-c1cccc(C)c1)C1CCS(=O)(=O)C1` (configuration not stated) the same measures were 1.72 and 97.2%.
Take `O=C1c2cccc3c(N4CCCCC4)ccc(c23)C(=O)N1c1cccc(O)c1`: the fold increase was found to be 7.68 and the viability was determined as 81.3%.
For `CCCCn1ccnc1C(=O)c1cccc(S(=O)(=O)N2CC(C)CC(C)C2)c1` (configuration not stated) the same measures were 1.33 and 76.4%.
The like results for `CC1(C)CC(=O)C=C(NCCN2CCN(C(=S)Nc3ccc(F)cc3)CC2)C1` were, in that order, 1.42 and 101%.

The values above are taken from PubChem BioAssay AID1956 (SRMLSC, 2009).
